Data from PubChem BioAssay AID743279 (National Center for Advancing Translational Sciences (NCATS), 2014).
Screen size: about 360,000 compounds; about 17,000 (4.7%) were called active. This list was built around the results that the source calls inconclusive (neither active nor inactive); the mix of calls is not that of the screen. Rule as the data show it: active = activity change below about -50%; inconclusive = mostly about -30% to -49%; inactive = weaker than that.

Assay: qHTS for Inhibitors of Inflammasome Signaling: IL-1-beta AlphaLISA Primary Screen
Conditions: THP-1 LPS/ATP IL-1B secretion, 16 h; at 57.5 µM, active compounds read low
Summary of the method: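 Secreted IL-1B measured by AlphaLISA bead assay after 16 h compound exposure of THP-1 cells; compounds (final up to 57.5 uM) added 1 h before LPS (250 ng/mL) and ATP (1.25 mM) stimulation; lower signal means less secretion.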
% is scaled to controls: 0 for no effect and ±100 for the full control effect.

Activity change, active:
c1ccc(CNc2nc(NCc3ccccc3)c3sccc3n2)cc1 -72.9%
CCOc1cccc(/C=C/c2ccc3cccc(O)c3n2)c1O -97.2%
CSC1=NC(C)(C)C=C(/C=C/c2c(Cl)cccc2Cl)N1 -97.2%

Activity change, inactive:
CC(=O)Nc1ccc2c(c1)Cc1ccc(Cl)cc1-2 5.33%
Cc1cccc(N(C(=O)CNC(=O)c2ccco2)C(C(=O)NC2CCCCC2)c2cccnc2)c1 (stereo not drawn) 9.81%
COc1ccc(Cn2cc(C(=O)c3ccccc3)c(=O)c3cc(OC)ccc32)cc1 -12.3%
Cc1ccc(/C=N/NC(=O)c2cc(-c3ccccc3)nc3ccccc23)o1 40.9%
Cc1ccc(C)c2c3c([nH]c12)-c1nonc1CC3 19.1%
CCOc1cc(CNCCc2ccc(S(N)(=O)=O)cc2)ccc1OCC(=O)NC1CCCCC1 -18.8%
CCCc1ccc(C#N)c(SC2CC(=O)N(c3ccc(OC)cc3)C2=O)n1 (stereo not drawn) 24.1%

Activity change, inconclusive:
Cc1nc(C(=O)Nc2ccc(Cl)cc2)nn1-c1ccc([N+](=O)[O-])cc1 -30.4%
Cc1noc(C)c1CSCC(=O)N1CCN(c2ccc([N+](=O)[O-])cc2)CC1 -33.9%
COC(=O)C1CCN(C(=O)COC(=O)c2cc([N+](=O)[O-])ccc2N2CCOCC2)CC1 -45.6%
CCCCn1cnc2cc(NCc3cccc(OC)c3O)ccc21 -35.8%
CC1CCN(CCCNC(=O)CN2C(=O)CSc3ccc(S(=O)(=O)N4CCC(C)CC4)cc32)CC1 -34.7%
CC1CCCCN1C(=O)c1ccc(NC(=O)c2ccccc2Cl)cc1 (stereo not drawn) -38%
CCc1sc(C(=O)NCCc2ccc(S(N)(=O)=O)cc2)cc1Br -48.8%
CCN(c1ccccc1)S(=O)(=O)c1cccc(C(=O)N(C)CC(=O)Nc2ccc(F)c(F)c2F)c1 -45.1%
CN(Cc1ccccc1)C(=O)c1ccc(Nc2nc(C(N)COCc3ccccc3)cs2)nc1 (stereo not drawn) -38.6%
CCOC(=O)c1ccc(NC(=S)N(CCCN2CCN(C)CC2)Cc2cccs2)cc1 -41.2%
CCOc1cc(/C=C2\SC(=O)N(c3ccc(O)cc3)C2=O)ccc1O -41.5%
Cc1ccc2c(c1)=C(c1sc(N(C)c3ccc(O)cc3)nc1O)C(=O)N=2 -39.5%
C(=C/c1ccnc2nc(SC/C=C/c3ccccc3)nn12)/c1ccccc1 -40.3%
